± gives the standard deviation of the averaged measurements. This is one part of the list.

This experiment concerns PfAP2-I AP2 domain 3 (GST-tagged). The experiment can be described thus: gcPBM binding intensity (ln(normalized median fluorescence intensity)); higher = stronger DNA binding. Summed up:
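An Agilent 4 × 180k array carrying primer-extended double-stranded 36-bp intergenic genomic probes and negative controls received GST-tagged P. falciparum DNA-binding domains expressed in E. coli, about 25 μg on average, for 1 h. The binding buffer contained 1× PBS, 1% milk, 0.2 mg/ml BSA, 0.5% salmon testes DNA and 0.03% Triton X-100. Binding intensity is the top Masliner-normalised natural-log median intensity across replicate spots of either probe orientation, read after Alexa488 anti-GST antibody staining and a 488 nm scan.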
Turning to “GAGTTTTAATGTAATAGTACTTTAATTATTATATAT [XGTACX_site4527]”, the “gcPBM binding intensity (ln)” value is 7.66 ± 0.28.

In the case of “ATCTTTTATATATTCACACATAAAATTATACAGATA [CACACA_site5277]”, the “gcPBM binding intensity (ln)” value came out at 7.99 ± 0.52. For “GATCGCATGAAATGAACACACATAAAAAAAATATAC [CACACA_site4087]” the value was 8.07 ± 0.52; for “AAAAAAAAAATATACACACACACATACCCATAAATA [CACACA_site5981]”, 7.96 ± 0.44; for “TTATAAAAATACAGTTAACACACATGTGTATATATA [CACACA_site9257]”, 7.79 ± 0.47.

As to “AAAATAATCTTATGCACACCAAAAATTTATATAATC [CACACA_site1235]”, the “gcPBM binding intensity (ln)” value worked out at 9.32 ± 0.43.

Take TAATGCAACATTTATGTGCACATAAATATTTTTTAA: the “gcPBM binding intensity (ln)” value amounted to 9.815 ± 0.064.

For the sequence “AAAACACAATTTATTACACACATATATTATAGATTA [CACACA_site6780]”, the “gcPBM binding intensity (ln)” value worked out at 7.61 ± 0.68. Take “TTTATTTTAAATTTACGTACATAATTAATCATATTT [XGTACX_site7529]”: the “gcPBM binding intensity (ln)” value amounted to 7.87 ± 0.28.

As to “ATAAAAAATTAGGACTGTACATAATTTTTGTGATTT [XGTACX_site2857]”, the “gcPBM binding intensity (ln)” value was found to be 7.67 ± 0.52.

For the sequence “TATATATATAAGGATAGTACATATATTTATATGATT [XGTACX_site4954]”, the “gcPBM binding intensity (ln)” value was determined as 8.9 ± 0.26. For “GACTACACACAAGGGTGTACATATATATTATATATA [XGTACX_site2247]” the value was 7.96 ± 0.33.

On to “TTAACTTATTTGTAAAGTACATTAATAAAAAGAAAA [XGTACX_site1588]”, for which the “gcPBM binding intensity (ln)” value was 7.74 ± 0.49. As for “AGGTTATAATTGTTTTCACACATTTAAAAATGTTAT [CACACA_site5097]”, the “gcPBM binding intensity (ln)” value came to 7.79 ± 0.64. “TTATATATTTCTATTGCACACTATATTTTATGAAGA [CACACA_site2910]”: the “gcPBM binding intensity (ln)” value came to 10.2 ± 0.11.

Turning to “ATGAAATTTATATCATGTACATACAAGAGAAAAAAA [XGTACX_site3326]”, the “gcPBM binding intensity (ln)” value stood at 7.89 ± 0.59. “AAAATTATAAAATGGGCACACATGAATATTGTAGTA [CACACA_site5261]”: the “gcPBM binding intensity (ln)” value turned out to be 7.8 ± 0.63. For “GTATAATAAATGATAGCACACATATGTACTTATATA [CACACA_site8188]”, the “gcPBM binding intensity (ln)” value was 8.13 ± 0.35.

Regarding “TGCTTCTTTTAAAAACATGTTTGTATTCATTTTATA [CACACA_negctrl_site1627]”, the “gcPBM binding intensity (ln)” value was 8.05 ± 0.74. Turning to “TTTTGGATGAACAGTACATGCAAAAACAAACTTGTA [TGCATGCA_site16]”, the “gcPBM binding intensity (ln)” value is 7.75 ± 0.74. As for “ATAATACCATTAATTTGTACATATATATTATATATA [XGTACX_site4345]”, the “gcPBM binding intensity (ln)” value worked out at 7.87 ± 0.43. For the sequence “ATTATATTATATATATGTACATATATATATCATAAT [XGTACX_site1]”, the “gcPBM binding intensity (ln)” value amounted to 7.63 ± 0.49.

Turning to “ACAAAAAGTTACATACGTACGTAAAATTGTAATAAA [XGTACX_site2358]”, the “gcPBM binding intensity (ln)” value is 7.84 ± 0.3.

“GACAAATGAAAAGATTGTACATGTATTTGAAGATTA [XGTACX_site6775]”: the “gcPBM binding intensity (ln)” value stood at 7.63 ± 0.38.

On to “TCTTTTATATTTTTTTGTACACAAGAATAAAGAAAA [XGTACX_site3394]”, for which the “gcPBM binding intensity (ln)” value is 8.18 ± 0.4. For “TACACAAAAATTTATACACACACATATATAATATAT [CACACA_site7931]” the value was 7.77 ± 0.34. Then “TGATTATATATAAATGTATGCATGTCTATTATGCTA [TGCATGCA_site543]”, with 7.44 ± 0.57; and “TATATATATATATATTGTACACATACATGTAGTTTT [XGTACX_site4848]”, with 9.48 ± 0.54. Then “AAAGTAATATATAATACATGCGTAAATATTTATGTA [TGCATGCA_site254]”, with 7.71 ± 0.53. As to “TATATATATATATAGGTGCAATATTGAAAAAATATC [GTGCAC_site9535]”, the “gcPBM binding intensity (ln)” value amounted to 11.3 ± 0.47. With “TAATTATACTTATTTTGTACGCAATATTTAAAATAA [XGTACX_site8516]”, the “gcPBM binding intensity (ln)” value is 8.115 ± 0.007. For “ACATATAAATGATATGTACACACATTTATATATATA [CACACA_site9152]” the value was 8.62 ± 0.26; for “ATTTCTCTATCGTAATGTACAAAAAAAAGGAAAAAA [XGTACX_site1323]”, 7.75 ± 0.49.

In the case of TTTTTAACGTATAAGGTGCACTGTATATGGTACTCA, the “gcPBM binding intensity (ln)” value is 11 ± 0.33. Then “ATAATTACATTCCATACACACATATATTTAAAGGTT [CACACA_site7403]”, with 7.83 ± 0.73.

As to “TTCTTGTTCCTGAAAGTGCATATAACAAAAATAACA [GTGCAC_site9635]”, the “gcPBM binding intensity (ln)” value is 9.99 ± 0.3.

On to “AATGATATATTTAAATGTACACATGAAATATAATAT [XGTACX_site2678]”, for which the “gcPBM binding intensity (ln)” value was 7.86 ± 0.43. Then “TATCTTCAAGTATGTACACACTATATATAATAAAAT [CACACA_site5368]”, with 8.11 ± 0.13.

Take “TTATATTTGATAGTTTGTACATATAATTATTATCAT [XGTACX_site5676]”: the “gcPBM binding intensity (ln)” value is 7.86 ± 0.42. For the sequence “TTTTCTGTGTTTACATGTACGAAAGATTAATATTAT [XGTACX_site5214]”, the “gcPBM binding intensity (ln)” value worked out at 7.92 ± 0.47. As to “ATTTGATAGACACATGCACACATGCAATACTTTATT [CACACA_site5633]”, the “gcPBM binding intensity (ln)” value was 8.81 ± 0.77.

As for “TTATCATATCATGGAAGTACAAATAAAATATATAAC [XGTACX_site1608]”, the “gcPBM binding intensity (ln)” value stood at 8.08 ± 0.67.

As to “TATATAAAAATATACACACACAAATGTATATATATA [CACACA_site220]”, the “gcPBM binding intensity (ln)” value was determined as 8.78 ± 0.35.

For the sequence “TACATACATACATACACACACATATAGATTTATATA [CACACA_site6999]”, the “gcPBM binding intensity (ln)” value is 8.79 ± 0.75. In the case of “ATATATATATATATATCACACATTAATAATATATAT [CACACA_site5081]”, the “gcPBM binding intensity (ln)” value came out at 9.21 ± 0.38. For “ATCAATCATGGTTTTACACACACATGCATGTGAAAA [CACACA_site1350]”, the “gcPBM binding intensity (ln)” value came to 7.93 ± 0.57. For “TCTTTATTATTCGCCACACACATATAAATATAAATA [CACACA_site7441]” the value was 8.29 ± 0.42; for “ATAATTTTGTATAATTGTACATTATTTTAAATAAAT [XGTACX_site7952]”, 7.72 ± 0.52. As for “AAAACATAACATTGTTGTACTACTAATAAAATAAGT [XGTACX_site6149]”, the “gcPBM binding intensity (ln)” value turned out to be 8.18 ± 0.34. Regarding “TTTTTTTTTTTTTTTAAACACACGGTGTGAAAATTA [CACACA_site3818]”, the “gcPBM binding intensity (ln)” value was determined as 8.19 ± 0.64. Turning to “AGTAGAATATCCCCTACACACCCAAGTAATTTACAA [CACACA_site6708]”, the “gcPBM binding intensity (ln)” value was determined as 8.02 ± 0.71. With “AAATGTGAAAAAGAGTGTACCCGACTTGAAATTAAG [XGTACX_site8621]”, the “gcPBM binding intensity (ln)” value amounted to 8.07 ± 0.58. Then “TTTAATTTTCAATGGCGTACATATAAAATATTATAT [XGTACX_site1672]”, with 7.98 ± 0.099; and “ATATGCACTTTTTGCACACGTATGAATAACAAAATA [CACACA_site1810]”, with 10 ± 0.25; and “GATGAATAATATGTATGTACATATGCATTATGATGT [XGTACX_site7655]”, with 8.24 ± 0.59.

In the case of “ACATATAGATAAATATGTACATATATATATATATAT [XGTACX_site1806]”, the “gcPBM binding intensity (ln)” value turned out to be 9.22 ± 0.22.

Turning to “TGTAATATATGTATTGCACACCTATAACCATTATTT [CACACA_site8422]”, the “gcPBM binding intensity (ln)” value amounted to 9.89 ± 0.3.

These data come from the supplement of paper PMC11417369.
